Laboratory results published in PMC10466050, “A comparative study of human and zebrafish glucocorticoid receptor activities of natural and pharmaceutical steroids” (Frontiers in Endocrinology, 2023).

Assays:
zfGR = zfGR (Danio rerio, UniProt Q1XHK0); test: Antagonistic activity assessment in presence of 3 nM dexamethasone, UMLN-zfGR cells; format: cell-based, zebrafish
hGR = molecular target: T1, hGR (Homo sapiens, UniProt P04150); settings: HMLN-hGR; with 3 nM dexamethasone; % of maximal luciferase activity induced by 100 nM dexamethasone; at 10^-5M
T1 sequence (P04150 1-777): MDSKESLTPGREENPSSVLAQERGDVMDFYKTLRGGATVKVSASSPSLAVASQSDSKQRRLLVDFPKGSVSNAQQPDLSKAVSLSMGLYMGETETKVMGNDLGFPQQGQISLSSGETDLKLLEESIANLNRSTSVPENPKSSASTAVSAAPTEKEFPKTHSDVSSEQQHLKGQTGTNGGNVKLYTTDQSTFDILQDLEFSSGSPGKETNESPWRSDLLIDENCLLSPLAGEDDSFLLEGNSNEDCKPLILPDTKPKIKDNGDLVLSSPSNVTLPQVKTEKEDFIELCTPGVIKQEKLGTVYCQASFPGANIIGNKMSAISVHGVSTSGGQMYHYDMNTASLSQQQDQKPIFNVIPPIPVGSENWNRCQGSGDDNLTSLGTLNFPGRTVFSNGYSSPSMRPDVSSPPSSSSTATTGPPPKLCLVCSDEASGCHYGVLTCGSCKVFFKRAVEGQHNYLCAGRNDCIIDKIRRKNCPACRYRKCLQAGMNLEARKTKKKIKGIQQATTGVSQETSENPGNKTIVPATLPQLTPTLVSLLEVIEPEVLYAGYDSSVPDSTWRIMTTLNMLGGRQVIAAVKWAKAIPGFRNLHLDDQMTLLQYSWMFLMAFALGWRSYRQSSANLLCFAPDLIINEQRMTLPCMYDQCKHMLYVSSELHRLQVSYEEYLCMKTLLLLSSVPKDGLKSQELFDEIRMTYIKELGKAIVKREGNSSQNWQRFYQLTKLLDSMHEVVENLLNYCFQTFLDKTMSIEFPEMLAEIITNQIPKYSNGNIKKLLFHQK

Row | SMILES | IC50 (zfGR; read-out: IC50) | % min act (minimal activity) (hGR) | % min act (minimal activity) (zfGR; UMLN-zfGR, with 3 nM dexamethasone, % of maximal luciferase activity induced by 100 nM dexamethasone, at 10^-5M)
1 | CCOC1=CC2=C(C)CC3C(C(O)CC4(C)C3CC(C)C43OCOC34COCO4)C2(C)CC1 (stereo not drawn) [forbimenol] | 3.16 µM |  | 
2 | CC#C[C@]1(O)CC[C@H]2[C@@H]3CCC4=CC(=O)CCC4=C3[C@@H](c3ccc(N(C)C)cc3)C[C@@]21C [mifepristone] |  | 11 ± 2% | 30 ± 6%
